Test results reported in PubChem BioAssay AID1460 (National Center for Advancing Translational Sciences (NCATS), 2008).
Screen size: about 270,000 compounds; about 5,800 (2.1%) were called active. The shares of active, inactive and inconclusive entries below differ from those in the screen. Calls follow the shape of the dose curve; as a rule, active = well fitted inhibition curve with a large enough effect; inconclusive = small, poorly fitted or top-dose-only effect; inactive = flat fitted curve, though single readings scatter. Potencies beside an inconclusive call are fits to weak or partial responses and may not hold up.

Biological target: Microtubule-associated protein tau (Homo sapiens) (UniProt P10636)
Experiment: qHTS for Inhibitors of Tau Fibril Formation, Thioflavin T Binding; also: nearly all actives have a fitted effect of over 55% in size
Conditions: recombinant tau K18 P301L, heparin-induced fibrillization, ThT fluorescence; series mostly up to 57.4 µM
In short: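 Fibril formation assay: tau K18 P301L at 15 uM with trace Alexa 594 label, heparin inducer 20 uM, pH 7 sodium acetate buffer, 37 C for 6 hr; endpoint ThT signal.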
Potency is read from the fitted curve at half-maximal effect; tags tell the direction and shape of the fitted curve.

Sequence of UniProt P10636 (P10636 whole entry, looked up): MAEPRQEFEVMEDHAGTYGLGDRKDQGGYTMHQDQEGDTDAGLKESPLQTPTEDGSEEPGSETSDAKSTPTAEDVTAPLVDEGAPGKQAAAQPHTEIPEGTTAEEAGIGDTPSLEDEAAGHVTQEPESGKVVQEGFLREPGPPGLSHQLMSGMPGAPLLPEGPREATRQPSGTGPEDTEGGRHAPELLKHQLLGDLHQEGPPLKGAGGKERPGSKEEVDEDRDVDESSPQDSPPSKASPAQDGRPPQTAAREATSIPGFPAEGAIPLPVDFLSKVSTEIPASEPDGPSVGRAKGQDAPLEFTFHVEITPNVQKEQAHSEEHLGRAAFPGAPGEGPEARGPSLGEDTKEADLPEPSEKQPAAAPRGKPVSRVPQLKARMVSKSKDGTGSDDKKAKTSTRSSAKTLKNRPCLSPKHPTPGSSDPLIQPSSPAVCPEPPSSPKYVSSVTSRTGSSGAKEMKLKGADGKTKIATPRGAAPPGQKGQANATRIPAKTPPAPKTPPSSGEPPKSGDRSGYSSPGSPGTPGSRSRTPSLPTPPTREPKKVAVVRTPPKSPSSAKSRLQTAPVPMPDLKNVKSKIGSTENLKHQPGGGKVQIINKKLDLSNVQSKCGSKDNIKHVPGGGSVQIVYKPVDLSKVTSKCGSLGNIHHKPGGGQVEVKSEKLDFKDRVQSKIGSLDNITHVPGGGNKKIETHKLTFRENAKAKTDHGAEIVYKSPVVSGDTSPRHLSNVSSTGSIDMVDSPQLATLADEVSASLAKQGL

Row | SMILES | Potency
1 | Cc1noc(C)c1C(=O)N1CCN(Cc2ccccc2)CC1 | inactive
2 | O=C(Nc1ccc(N2CCOCC2)c(Cl)c1)c1ccc(Br)o1 | inconclusive: 14.1 µM [inhibitor, partial curve]
3 | N#CCC1c2ccccc2CCN1C(=O)Nc1cccc(Cl)c1 (configuration not stated) | inactive
4 | CCOC(=O)c1c(-c2ccccc2Cl)csc1NC(=O)c1cc(S(=O)(=O)N2CCOCC2)ccc1C | inactive
5 | O=C(O)c1cc(-c2ccco2)nc2ccccc12 | inactive
6 | Cc1ccc(-n2c(C)cc(/C=C3/C(=N)N4C(c5ccccc5)=CSC4=NC3=O)c2C)cc1 | inconclusive: 2 µM [inhibitor, partial curve]
7 | CCOc1cc(C(=O)NC(=S)Nc2cccnc2)cc(OCC)c1OCC | inconclusive: 22.4 µM [inhibitor, single point]
8 | COc1ccc(C(c2c(O)nc(SC)n(C)c2=O)c2c(O)nc(SC)n(C)c2=O)cc1O | inconclusive: 7.08 µM [inhibitor, full curve]
9 | CC1CC2(CC(C)(C(=O)CSc3n[nH]c(-c4ccccc4Cl)n3)OC2=O)C(=O)O1 (configuration not stated) | inactive
10 | NC(=O)COC(=O)c1cc([N+](=O)[O-])ccc1NCCO | inactive
11 | COC(=O)c1sc2nc(C)c([N+](=O)[O-])c(C)c2c1N | active: 3.16 µM
12 | Cc1ccc(NC(=O)Cn2nnc(-c3nc(-c4ccc(Cl)cc4)no3)c2N)cc1C | inactive
13 | Cc1nc2c(C(=O)NCCc3ccccc3)c[nH]n2c(=O)c1Cc1ccc(F)cc1Cl | inconclusive: 28.2 µM [inhibitor, single point]
14 | Cc1cccc(N2CCN(C(=O)c3ccc(NC(=O)c4nsc5ccccc45)cc3)CC2)c1C | inactive
15 | O=S(=O)(/N=C(\Sc1ccc(Cl)cc1)c1ccccc1)c1ccccc1 | active: 35.5 µM
16 | CCOc1ccc(C(=O)Nc2ccc(-c3nc4ccccc4s3)c(C)c2)cc1OCC | inconclusive: 1.78 µM [inhibitor, full curve, poor fit]
17 | CC(=O)N1CCN(CC(=O)Nc2c(Cl)cccc2Cl)CC1 | inactive
18 | COc1ccc(/C=C(/C#N)C(=O)Nc2cccc([N+](=O)[O-])c2)cc1C(=O)O | inconclusive: 17.8 µM [inhibitor, single point]
19 | C#CCN(Cc1ccco1)C(=O)c1cc(COc2ccc(F)cc2Cl)on1 | active: 12.6 µM
20 | CCCCOCCCNS(=O)(=O)c1ccccc1 | inactive
21 | C[C@H]1OC(=O)CC[C@@H]2[C@]1(C)CCC1[C@@]2(C)CC[C@@]2(C)C3CC(C)(C)CC[C@]3(CO)CC[C@]12C (some centres not stated) | inactive
22 | COc1ccc(-c2[nH]c(-c3cccc(OC)c3)nc2SCC(=O)NCc2ccco2)cc1 | inconclusive: 22.4 µM [inhibitor, partial curve]
23 | CCC1(CC)Cc2ccccc2C2=C(C(=O)N3CCCCC3)C(=O)C(=O)N21 | inactive
24 | COc1cc(/C=C2\SC(=S)N(CC(=O)Nc3ccccn3)C2=O)cc(OC)c1OC | inconclusive: 28.2 µM [inhibitor, partial curve]

Row | SMILES | Potency
25 | COc1ccc(OC)c(NC(=O)CSc2nncc3ccc(OC)c(OC)c23)c1 | inconclusive: 10 µM [inhibitor, partial curve, poor fit]
26 | COc1ccc2[nH]cc(CCNC(=O)c3cnn(-c4ccccc4Cl)c3C3CCN(C(=O)OC(C)(C)C)CC3)c2c1 | inconclusive: 39.8 µM [inhibitor, single point]
27 | N#Cc1ccc(OCC(=O)Nc2cc(S(=O)(=O)N3CCOCC3)ccc2N2CCOCC2)cc1 | inactive
28 | CCN(c1cc(C)cc(C)c1)S(=O)(=O)c1nnc(NC(=O)c2ccco2)s1 | inconclusive: 14.1 µM [inhibitor, single point]
29 | Cc1[nH]c2ccccc2c1C(=O)COC(=O)c1ccc([N+](=O)[O-])s1 | active: 7.08 µM
30 | O=C(c1ccc(Oc2ccc([N+](=O)[O-])cc2Cl)cc1)N1CCCC1 | inconclusive: 25.1 µM [inhibitor, single point]
31 | COc1ccc(Cl)cc1NC(=O)CSc1nc(-c2ccccc2)c2ccccc2n1 | inactive
32 | CN(C)c1ccc(/C=N/NC(=O)c2ccn(C)n2)cc1 | inconclusive: 39.8 µM [inhibitor, single point]
33 | N#C/C(=C/C=C/c1ccccc1)C(=O)Nc1ccccc1 | inconclusive: 2.51 µM [inhibitor, full curve]
34 | O=C(NCc1ccco1)/C(=C\C=C\c1ccccc1)NC(=O)c1ccccc1Br | inconclusive: 31.6 µM [inhibitor, partial curve]
35 | O=C(Oc1ccccc1)N1CCN(c2ccc(F)cc2)CC1 | inactive
36 | O=C(N/N=C/c1ccccn1)c1cc(-c2ccc3ccccc3c2)n[nH]1 | inconclusive: 31.6 µM [activator, single point]
37 | O=C(Nc1nc2ccccc2s1)c1cc(-c2ccccc2)nn1-c1ccccc1 | inconclusive: 39.8 µM [inhibitor, single point]
38 | c1cncc(-c2nc(NCCCn3ccnc3)c3ccccc3n2)c1 | inactive
39 | CC(=O)Nc1ccc(Nc2ccc3nonc3c2[N+](=O)[O-])cc1 | inconclusive: 22.4 µM [inhibitor, partial curve]
40 | O=C(/C=C/c1cccc([N+](=O)[O-])c1)OCC(=O)c1ccccc1 | inconclusive: 14.1 µM [inhibitor, partial curve]
41 | CCOc1ccc(N2CC(c3nc4ccccc4n3Cc3cccc(C)c3)CC2=O)cc1 (configuration not stated) | inconclusive: 28.2 µM [inhibitor, partial curve]
42 | COc1ccccc1N1CCN(C(=O)c2cc(-c3ccc(Cl)cc3)on2)CC1 | inactive
43 | O=C(N/N=C/c1ccc(OCC2COCCO2)cc1)c1ccc(Br)cc1 (configuration not stated) | inconclusive: 14.1 µM [inhibitor, partial curve, poor fit]
44 | Cc1ccc(-n2c(C)nc3c(cnn3-c3ccccc3Cl)c2=O)cc1C | inactive
45 | CC1CCCN(c2ccc(C(=O)NCc3ccccc3)cn2)C1 (configuration not stated) | inactive
46 | COc1ccc(-n2c(=O)c3sc4ccccc4c3n(CC(=O)NCc3ccccc3)c2=O)cc1 | inactive
47 | O=C(CC1SC(=O)N(c2ccccc2)C1=O)Nc1ccccc1 (configuration not stated) | inconclusive: 8.91 µM [inhibitor, partial curve]
